Source: PubChem BioAssay (NCI)
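Test compounds were applied to cells in 96-well plates for 48 hours at 5 doses. GI50 marks 50% less growth. TGI is the concentration that stops growth completely.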

System: NCI-H322M lung
Experiment: growth of human tumour cells (NCI), 48 h

SMILES	GI50 [µM]	TGI [µM]
C=C1C(=O)O[C@H]2[C@H]1CC/C(COC(=O)/C=C\C(=O)NCc1ccc(Cn3c(=O)sn(-c4ccc(OC)cc4)c3=O)cc1)=C\CC[C@@]1(C)O[C@@H]21	2.29	7
O=C(CCCCC(=O)N/N=C\c1ccccc1Cl)N/N=C\c1ccccc1Cl	28.8	> 100
CC1=NN(c2nc(N)nc(C(C)Sc3cc(Cl)c(C)cc3S(N)(=O)=O)n2)C(C)(C)C1 (stereo not drawn)	–	> 10
O=c1c2c(sc3ccccc13)NCN(CCc1ccccc1)C2	–	> 100
Nc1ncnc2c1ncn2[C@@H]1C[C@H]1CO	–	> 100
Cc1c(/C=N/NC(=O)c2ccccc2)c(=O)n(-c2ccccc2)n1C	–	> 100
Oc1ccc(-c2c3ccccc3c(-c3ccc(OCCBr)cc3)c3ccccc23)cc1	–	67.2
O=c1cc2n(c(=O)[nH]1)C1OC(C(O)C1O)[C@H]2CCO (stereo partly drawn)	–	> 100
CCOC(=O)C1(Cc2ccccc2)Cc2cc3c(cc2C1=O)CCC3 (stereo not drawn)	–	> 100
CC(=O)OCc1cccc(O)c1C(=O)CCC=C(C)C	–	> 100
O=C(CSc1nc2ccc([N+](=O)[O-])cc2[nH]1)Nc1cccc(Cl)c1	3.2	15.2
O=C1NC2OCC(O)C(O1)C2O (stereo not drawn)	–	> 100
O=C(CCc1nnc2s/c(=C\c3ccc4c(c3)OCO4)c(=O)n12)Nc1cc(Cl)ccc1Cl	–	> 100
c1ccc(-c2nc3sccn3n2)cc1	–	> 100
Cc1cccc2nc3n(c12)C(=O)c1ccccc1-3	–	> 100
O=C(O)CN1CCNCCN(CC(=O)O)CCNCC1	–	> 100
COc1ccc(N2C(=O)CSC2c2cc3cc(Br)ccc3nc2Cl)cc1 (stereo not drawn)	–	> 50
CC(=O)O[C@H]1C(=O)[C@@]2(C)[C@H]([C@H](OC(=O)c3ccccc3)[C@]3(O)C[C@H](OC(=O)[C@H](O)[C@@H](NC(=O)c4ccccc4)C4CCCCC4)C(C)=C1C3(C)C)[C@]1(OC(C)=O)CO[C@@H]1C[C@@H]2O	–	> 100
C[C@@H]1CCC2[C@@H](C)[C@H](O[C@H]3O[C@@H]4O[C@@]5(C)CCC6[C@H](C)CCC([C@H]3C)[C@]64OO5)O[C@@H]3O[C@@]4(C)CCC1[C@@]23OO4 (stereo partly drawn)	–	24
OCCOCCN1CCN(c2nc(N3CCCC3)c3nc(Cl)c(NCc4ccccc4)nc3n2)CC1	–	29.7
CC(=O)Nc1ccc2c3c(cc(O)c2c1)N(C(=O)CCCC(=O)Nc1ccc2c4c(cc(O)c2c1)N(C(=O)OC(C)(C)C)CC4CCl)CC3CCl (stereo not drawn)	–	24.9
O=C(O)CN(CC(=O)O)Cc1cc2c(cc1O)Oc1cc(O)c(CN(CC(=O)O)CC(=O)O)cc1C21OC(=O)c2ccccc21	–	> 100

SMILES	GI50 [µM]	TGI [µM]
COc1ccc(CN2C(=O)C(Cc3cc(OC)c(OC)c(C)c3OC)N(C(=O)OC(C)C)C(=O)/C2=C/c2cc(OC)c(OC)c(C)c2OC)cc1 (stereo not drawn)	–	> 100
COc1cc(COC(=O)N2CCCCC2C(=O)O)c([N+](=O)[O-])cc1OC (stereo not drawn)	–	> 100
CCCCC(NC(=O)CC)C(=O)O (stereo not drawn)	–	> 100
CCOC(=O)N1CC2(C(=O)OC)C=CC1C(C(=O)OC)C2 (stereo not drawn)	–	> 100
CC(Oc1ccccc1)C(=O)NN (stereo not drawn)	–	> 100
O=c1oc2c3ccc4ccccc4c3n(CCN3CCOCC3)c2c2ccccc12	–	> 100
COc1ccc(C(=O)C(c2ccc(OC)cc2)C2C(=O)Oc3ccccc32)cc1 (stereo not drawn)	> 100	> 100
O=S(=O)(O)c1ccc(Cl)cc1.[Cd]	> 100	> 100
COc1ccc2nc3cc(Cl)ccc3c(NCCC(=O)OCC(O)C(O)C(O[C@H](C)C(=O)NC(C)C(=O)NC(CCC(N)=O)C(=O)OCc3ccccc3)C(C=O)NC(C)=O)c2c1 (stereo partly drawn)	–	33.9
[N-]=[N+]=Nc1ccccc1-[n+]1noc([O-])c1Br	–	> 100
Cc1cc2c(cc1C)N1Cc3c(ccc(C)c3C)N(C2)C1 (tested in a mixture with another compound)	–	> 100
Nc1ncnc2c1c(-c1cccc(OCc3ccccc3)c1)cn2C1CC(CN2CCCC2)C1 (stereo not drawn)	2.98	16.9
O=C(c1ccccc1)c1ccc(Cl)c([N+](=O)[O-])c1	13	26.1
C[N+](C)(C)CCC(=O)N1C/C(=C\c2ccccc2)C(=O)/C(=C/c2ccccc2)C1	–	28.7
COc1c(C(=O)/C(=N/Nc2ccccc2)C(C)=O)c(O)c(OC)c2occc12	–	> 100
CCCn1cc(C2=C(c3cn(C)c4ccccc34)C(=O)NC2=O)c2ccccc21	2.32	> 23.5
O=C(Cn1c(C(=O)/C=C/c2ccco2)nc2ccccc21)c1ccc(Cl)cc1	–	> 100
CCOC(=O)NC(=O)c1cn(CCCCCOC(=O)NCCCCCCNC(=O)OCCCCCn2cc(C(=O)NC(=O)OCC)c(=O)[nH]c2=O)c(=O)[nH]c1=O	–	> 100
CSc1c(CC(=O)O)n(Cc2ccccc2)c2ccccc12	–	> 100
CCOc1ccc(C2=C(Cl)c3cc(OC)c(OC)cc3C2Cl)cc1 (stereo not drawn)	–	> 100
O=C1C(c2ccc([N+](=O)[O-])cc2)=[N+]([O-])c2ccccc21	–	> 100
COc1cc(-c2cc(/C=C/C(=O)c3ccc4c(c3)OCO4)[nH]n2)cc(OC)c1OC	3.01	19.1

SMILES	GI50 [µM]	TGI [µM]
Fc1ccc(-c2ncn(C3CCNCC3)c2-c2ccnc(Oc3ccccc3)n2)cc1	> 25	> 25
Cc1c2ccccc2c(CO)c2cc(F)c3ccccc3c12	–	> 100
O=C(CC1(O)C(=O)Nc2c(Cl)cccc21)c1ccccc1 (stereo not drawn)	–	> 100
CC(=O)Nc1ccc(C2=N/C(=C\c3ccc(Cl)c(Cl)c3)C(=O)O2)cc1	–	> 100
CC/C(Cl)=N\OC(=O)Nc1ccccc1OC(F)(F)F	–	35.3
COc1ccc(-c2cc(-c3ccc(O)cc3)nc3nc(=S)[nH]c(N)c23)cc1	25.5	86.4
COc1ccc(OC)c(C2CCCc3c2cnc2nc(N)nc(N)c32)c1 (stereo not drawn)	–	> 100
C#CC[C@@H]1C[C@]2(C)[C@H]3CC[C@@H]4[C@H]5[C@H](C(=C)C)CC[C@]5(C(=O)O)CC[C@@]4(C)[C@]3(C)CC[C@H]2C(C)(C)[C@H]1O	3.09	16.7
CC1(C)CC[C@]2(C(=O)n3ccnc3)CC[C@]3(C)[C@H](C(=O)C=C4[C@@]5(C)C=C(C#N)C(=O)C(C)(C)[C@@H]5CC[C@]43C)[C@@H]2C1	< 0.0177	0.0625
Cc1nc2c(=O)[nH]c3ccccc3c2o1	–	> 100
C=C1C(=O)O[C@H]2[C@H]1CC/C(C=Nc1ccc(C(F)(F)F)cc1N)=C\CC[C@@]1(C)O[C@@H]21	11.3	24.4
COC(=O)C(/C(=N/N)C(=O)Nc1ccc(C)c(C)c1)c1nc2ccc(Cl)cc2[nH]c1=O (stereo not drawn)	–	> 100
Cc1ccccc1N=Cc1ccc(N(CCC#N)S(=O)(=O)c2ccccc2)cc1	–	> 100
CC(N)C(=O)c1ccc(O)cc1 (stereo not drawn)	–	> 100
CN(C)CCCNC(=O)c1cc(NC(=O)CCNC(=O)c2ccc3c(c2)C(=O)c2ccccc2C3=O)cn1C	30.3	> 100
COc1ccc2c(C)cc(N/N=C/c3sccc3C)nc2c1	–	15.9
Brc1ccccc1/C=C\C1(c2ccccc2)OCCO1	–	30
O=C1Nc2ccccc2C1(c1ccc(O)c(F)c1)c1ccc(O)c(F)c1	0.286	1.09
O=C(N/N=C/c1coc2ccc(Cl)cc2c1=O)c1ccncc1	30.1	95
CC(C)(C)[Si](C)(C)OCC1OC(n2cc(F)c(=O)[nH]c2=O)CC1O[Si](C)(C)C(C)(C)C (stereo not drawn)	–	25
CN(C)C1(C(=O)O)CC1	–	> 100
Cc1ccc(-c2c(C#N)c(-c3ccc([N+](=O)[O-])cc3)c(C#N)c(=O)n2NS(=O)(=O)c2ccc(C)cc2)cc1	–	> 100
